Holding throughout (assay): SPR (Biacore 8K), VHH-Fc captured, TfR apical domain as analyte
(In general: Surface plasmon resonance follows binding to a sensor surface in real time, without labels.)

Assay [1] concerns the target T1, cynomolgus transferrin receptor apical domain (cynomolgus, UniProt A0A2K5X958 198-378).
T1 construct: domain: apical domain; Soluble analyte in SPR; also called cyTfR-AD; cyno TfR apical domain
The protocol:
(§1) A set of experiments was performed to assess the binding affinities of VHH-Fc fusions for human and cyno TfR apical domain. In these experiments, binding affinities were determined by surface plasmon resonance using a Biacore™ 8K instrument in 1×HBS-EP+running buffer (GE Healthcare Cat. No. BR100669). Biacore™ Series S CM5 sensor chips were treated with a Human antibody capture kit (GE Healthcare, Cat. No. BR100839). VHH-Fc fusions were captured on each flow cell and serial 3-fold dilutions of human and cyno TfR apical domain (300, 100, 33, 11, 3.7, and 0 nM) were injected at a flow rate of 30 μL/min using the multi cycle kinetics method. Each sample was analyzed with a 270-second association and a 10-minute dissociation. Some VHH-Fc fusions were measured with serial 3-fold dilutions of human and cyno TfR apical domain (100, 33, 11, and 0 nM) with a 300-second association and 10-minute dissociation. After each cycle, the chip was regenerated using 3 M magnesium chloride for 30 seconds at 50 μL/minute. Binding response was corrected by subtracting the RU from a reference flow cell. A 1:1 Langmuir model of simultaneous fitting of kₒₙ and koff was used for kinetics analysis using Biacore™ 8K Evaluation Software.

Assay [2] has as its target T2, human transferrin receptor apical domain (human, UniProt P02786 198-378, limits assumed).
T2 construct: domain: apical domain; Soluble analyte in SPR; also called huTfR-AD; human TfR apical domain
Here is the method: as §1

Assay [3] deals with T1, cynomolgus transferrin receptor apical …. The protocol: as §1
The source holds these as a separate data set.

In assay [4] the target is T2, human transferrin receptor apical domain. Here is the method:
as §1
This is another data set of the same source.

The target in assay [5] is T1, cynomolgus transferrin receptor apical …. The protocol:
as §1
This is another data set of the same source.

For assay [6], the target named is T2, human transferrin receptor apical domain. The protocol: as §1
This is another data set of the same source.

Where two headings read alike, the source gives them in different places.

T1 sequence (A0A2K5X958 entry or part of it): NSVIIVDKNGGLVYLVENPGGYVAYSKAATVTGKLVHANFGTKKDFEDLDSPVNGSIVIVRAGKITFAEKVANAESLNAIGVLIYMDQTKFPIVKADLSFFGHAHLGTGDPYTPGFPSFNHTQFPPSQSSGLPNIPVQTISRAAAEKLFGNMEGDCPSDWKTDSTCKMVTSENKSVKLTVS
T2 sequence (P02786 198-378 limits assumed): as the sequence (A0A2K5X958 entry or part of it) above, with G11R, D50Y, S51T, K95N, D97E, Q128R, K167R, N173S, S175N counted along it

B1: E10 VHH-Fc (Fc fusion)
chain: QVQLVESGGGLVQPGGSLRLSCTTSGSTLDDYAIGWFRQAPGKEREGVSCISSSDGITFYGDFVKGRFTISRDNAKNSVYLQMNNLKPEDTAVYYCAAKYGPNICRGWLWVPPVSGSWGQGTQVTVSSAS[sequence of human IgG1 Fc with changes omitted]
What is called Kd is the equilibrium constant for the complex coming apart. In assay [1], B1 gave a dissociation constant (Kd) of 2.07 nM.

B2: hB07v17 (Fc fusion)
chain: EVQLVESGGGLVQPGGSLRLSCAASGLTSDTGGMGWFRQAPGKEREWVSAITWSGRHTLYADSVKGRFTISRDKSKNTVYLQMNSLRAEDTAVYYCALDVVGIGIEVQTYDYWGQGTLVTVSSGGGGAS[sequence of human IgG1 Fc with changes omitted]
notes: Humanized B07 VHH (hu VH3; 37F, 44E, 45R, 73K, 78V) fused to human IgG1 Fc
Turning to B2, the dissociation constant Kd in assay [2] worked out at 0.4 nM; in assay [3], 2.3 nM; in assay [4], 1.2 nM; in assay [5] it was 2.5 nM.

B3: hB07v19 (Fc fusion)
chain: EVQLVESGGGLVQPGGSLRLSCAASGFTFSTGGMSWFRQAPGKEREWVSAITWSGRHTLYADSVKGRFTISRDKSKNTVYLQMNSLRAEDTAVYYCALDVVGIGIEVQTYDYWGQGTLVTVSSGGGGAS[sequence of human IgG1 Fc with changes omitted]
Turning to B3, the Kd in assay [4] was 17 nM; in assay [5], 32 nM.

B4: hB07v21 (Fc fusion)
chain: EVQLVESGGGLVQPGGSLRLSCAASGFTFSTGGMSWFRQAPGKEREWVSAITFSGRHTLYADSVKGRFTISRDKSKNTVYLQMNSLRAEDTAVYYCALDVVGIGIEVQTYDYWGQGTLVTVSSGGGGAS[sequence of human IgG1 Fc with changes omitted]
For the molecule B4, the equilibrium dissociation constant (Kd) turned out to be 14 nM in assay [4] and 25 nM in assay [5].

B5: hB07v20 (Fc fusion)
chain: EVQLVESGGGLVQPGGSLRLSCAASGFTFSSGGMSWFRQAPGKEREWVSAITWSGRHTLYADSVKGRFTISRDKSKNTVYLQMNSLRAEDTAVYYCALDVVGIGIEVQTYDYWGQGTLVTVSSGGGGAS[sequence of human IgG1 Fc with changes omitted]
Consider B5, for which the Kd in assay [4] came out at 25 nM; in assay [5] it was 47 nM.

B6: hB07v18 (Fc fusion)
chain: EVQLVESGGGLVQPGGSLRLSCAASGFTFSTGGMGWFRQAPGKEREWVSAITWSGRHTLYADSVKGRFTISRDKSKNTVYLQMNSLRAEDTAVYYCALDVVGIGIEVQTYDYWGQGTLVTVSSGGGGAS[sequence of human IgG1 Fc with changes omitted]
As to B6, the results for the equilibrium dissociation constant (Kd) in assay [4] and in assay [5] were 2.6 nM and 5 nM, respectively.

B7: hB07v10 (Fc fusion)
chain: EVQLVESGGGLVQPGGSLRLSCAASGLTSDTGGMGWFRQAPGKELEWVSAITWSGRHTLYADSVKGRFTISRDNSKNTVYLQMNSLRAEDTAVYYCALDVVGIGIEVQTYDYWGQGTLVTVSSGGGGAS[sequence of human IgG1 Fc with changes omitted]
notes: Humanized B07 VHH (hu VH3; 37F, 44E, 78V) fused to human IgG1 Fc
For the molecule B7, the Kd in assay [2] amounted to 1.3 nM; in assay [3], 3.1 nM.

B8: hB07v22 (Fc fusion)
chain: EVQLVESGGGLVQPGGSLRLSCAASGFTFSTGGMSWFRQAPGKEREWVSAITYSGRHTLYADSVKGRFTISRDKSKNTVYLQMNSLRAEDTAVYYCALDVVGIGIEVQTYDYWGQGTLVTVSSGGGGAS[sequence of human IgG1 Fc with changes omitted]
Turning to B8, the Kd in assay [4] turned out to be 37 nM; in assay [5], 77 nM.

B9: hB07v14 (Fc fusion)
chain: EVQLVESGGGLVQPGGSLRLSCAASGLTSDTGGMGWFRQAPGKGLEWVSAITWSGRHTLYADSVKGRFTISRDNSKNTVYLQMNSLRAEDTAVYYCALDVVGIGIEVQTYDYWGQGTLVTVSSGGGGAS[sequence of human IgG1 Fc with changes omitted]
notes: Humanized B07 VHH (hu VH3; 37F, 78V) fused to human IgG1 Fc
For B9, the Kd in assay [2] is 1.3 nM; in assay [3], 2.9 nM.

B10: hB07v11 (Fc fusion)
chain: EVQLVESGGGLVQPGGSLRLSCAASGLTSDTGGMGWFRQAPGKGREWVSAITWSGRHTLYADSVKGRFTISRDNSKNTVYLQMNSLRAEDTAVYYCALDVVGIGIEVQTYDYWGQGTLVTVSSGGGGAS[sequence of human IgG1 Fc with changes omitted]
notes: Humanized B07 VHH (hu VH3; 37F, 45R, 78V) fused to human IgG1 Fc
Regarding B10, the Kd in assay [2] was determined as 2 nM; in assay [3], 4.2 nM.

B11: hB07v12 (Fc fusion)
chain: EVQLVESGGGLVQPGGSLRLSCAASGLTSDTGGMGWFRQAPGKEREWVSAITWSGRHTLYADSVKGRFTISRDNSKNTVYLQMNSLRAEDTAVYYCALDVVGIGIEVQTYDYWGQGTLVTVSSGGGGAS[sequence of human IgG1 Fc with changes omitted]
notes: Humanized B07 VHH (hu VH3; 37F, 44E, 45R, 78V) fused to human IgG1 Fc
B11: the Kd in assay [2] turned out to be 2 nM; in assay [3], 4.3 nM.

B12: A08 VHH-Fc (Fc fusion)
chain: QVQLVESGGGVVQPGGSLRLSCAASGSTLDHYAIGWFRQAPGKEREGVSCISRSDGITYYADSVKGRFTISRDNAKNTVYLQMNSLKPEDTAVYYCAAHYGPNVCRGWLWEPPISGSWGQGTQVTVSSAS[sequence of human IgG1 Fc with changes omitted]
Take B12: the Kd in assay [6] was 2.72 nM; in assay [1] it was 18.3 nM.

B13: A04 VHH-Fc (Fc fusion)
chain: QLQLVESGGGLVQPGESLRLSCVPSGFTLDYFAIAWFRQAPGKEREGVSCISSGDGRTFYADSVKGRFTISRDNSKNTVYLQMNSLKPEDTAVYYCASHDGPNVCRGWLWVPQLSGSWGQGTQVTVSSAS[sequence of human IgG1 Fc with changes omitted]
As for B13, the dissociation constant (Kd) in assay [6] is 5.79 nM; in assay [1] it was 11.8 nM.
